# Measured values from the supplement of paper PMC8728848.
# The other results are listed elsewhere or left out.
# Key:
# Assay in all cases: glycan array binding signal (z-score within array); higher = stronger binding
# Conditions in all cases: glycan notation: IUPAC condensed, linker removed
# [1] = target: Neu5Ac(a2-6)Gal(b1-4)GlcNAc(b1-3)Gal(b1-4)GlcNAc
# Summary of the method: (§1)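 The binding signal is a Z-score computed within each array and averaged over linkers. Arrays of the same protein sequence at different concentrations or buffers were also averaged together. Data originate from 3228 arrays in the Consortium for Functional Glycomics database, kept only where the protein sequence was available.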
# [2] = target: Neu5Ac(a2-6)Gal(b1-4)GlcNAc(b1-3)Gal(b1-4)GlcNAc(b1-2)Man(a1-3)[Neu5Ac(a2-6)Gal(b1-4)GlcNAc(b1-3)Gal(b1-4)GlcNAc(b1-2)Man(a1-6)]GalNAc
# Summary of the method: as §1
# [3] = target: Neu5Ac(a2-6)Gal(b1-4)GlcNAc(b1-3)Gal(b1-4)GlcNAc(b1-3)Gal(b1-4)GlcNAc
# Summary of the method: as §1
# [4] = target: Neu5Ac(a2-6)Gal(b1-4)GlcNAc(b1-3)Gal(b1-4)GlcNAc(b1-3)Gal(b1-4)GlcNAc(b1-2)Man(a1-3)[Neu5Ac(a2-6)Gal(b1-4)GlcNAc(b1-3)Gal(b1-4)GlcNAc(b1-3)Gal(b1-4)GlcNAc(b1-2)Man(a1-6)]GalNAc
# Summary of the method: as §1
# [5] = target: Neu5Ac(a2-6)Gal(b1-4)GlcNAc(b1-3)Gal(b1-4)GlcNAc(b1-3)GalNAc
# Summary of the method: as §1
# [6] = target: Neu5Ac(a2-6)Gal(b1-4)GlcNAc(b1-3)Gal(b1-4)GlcNAc(b1-3)[Neu5Ac(a2-6)Gal(b1-4)GlcNAc(b1-3)Gal(b1-4)GlcNAc(b1-6)]GalNAc
# Summary of the method: as §1
# [7] = target: Neu5Ac(a2-6)Gal(b1-4)GlcNAc(b1-3)Gal(b1-4)GlcNAc(b1-6)[Gal(b1-3)]GalNAc
# Summary of the method: as §1
# [8] = target: Neu5Ac(a2-6)Gal(b1-4)GlcNAc(b1-3)Gal(b1-4)[Fuc(a1-3)]GlcNAc(b1-3)Gal(b1-4)[Fuc(a1-3)]GlcNAc
# Summary of the method: as §1
# [9] = target: Neu5Ac(a2-6)Gal(b1-4)GlcNAc(b1-3)GalNAc
# Summary of the method: as §1
# [10] = target: Neu5Ac(a2-6)Gal(b1-4)GlcNAc(b1-3)[Neu5Ac(a2-6)Gal(b1-4)GlcNAc(b1-6)]GalNAc
# Summary of the method: as §1
# [11] = target: Neu5Ac(a2-6)Gal(b1-4)GlcNAc(b1-6)GalNAc
# Summary of the method: as §1
# [12] = target: Neu5Ac(a2-6)Gal(b1-4)GlcNAc(b1-6)[Gal(b1-3)GlcNAc(b1-3)]Gal(b1-4)Glc
# Summary of the method: as §1
# [13] = target: Neu5Ac(a2-6)Gal(b1-4)GlcNAc(b1-6)[Gal(b1-3)]GalNAc
# Summary of the method: as §1
# [14] = target: Neu5Ac(a2-6)Gal(b1-4)GlcNAc6S
# Summary of the method: as §1
# [15] = target: Neu5Ac(a2-6)GalNAc
# Summary of the method: as §1
# [16] = target: Neu5Ac(a2-6)GalNAc(b1-4)GlcNAc
# Summary of the method: as §1
# [17] = target: Neu5Ac(a2-6)GalNAc(b1-4)GlcNAc6S
# Summary of the method: as §1
# [18] = target: Neu5Ac(a2-6)GlcNAc(b1-4)GlcNAc
# Summary of the method: as §1
# [19] = target: Neu5Ac(a2-6)GlcNAc(b1-4)GlcNAc(b1-4)GlcNAc
# Summary of the method: as §1
# [20] = target: Neu5Ac(a2-8)Neu5Ac
# Summary of the method: as §1
# [21] = target: Neu5Ac(a2-8)Neu5Ac(a2-3)Gal(b1-3)GalNAc(b1-4)[Neu5Ac(a2-3)]Gal(b1-4)Glc
# Summary of the method: as §1
# [22] = target: Neu5Ac(a2-8)Neu5Ac(a2-3)Gal(b1-3)GalNAc(b1-4)[Neu5Ac(a2-8)Neu5Ac(a2-3)]Gal(b1-4)Glc
# Summary of the method: as §1
# [23] = target: Neu5Ac(a2-8)Neu5Ac(a2-3)Gal(b1-4)Glc
# Summary of the method: as §1
# [24] = target: Neu5Ac(a2-8)Neu5Ac(a2-3)Gal(b1-4)GlcNAc
# Summary of the method: as §1
# [25] = target: Neu5Ac(a2-8)Neu5Ac(a2-3)[Gal(b1-3)GalNAc(b1-4)]Gal(b1-4)Glc
# Summary of the method: as §1
# [26] = target: Neu5Ac(a2-8)Neu5Ac(a2-3)[GalNAc(b1-4)]Gal(b1-4)Glc
# Summary of the method: as §1
# [27] = target: Neu5Ac(a2-8)Neu5Ac(a2-8)Neu5Ac
# Summary of the method: as §1
# [28] = target: Neu5Ac(a2-8)Neu5Ac(a2-8)Neu5Ac(a2-3)Gal(b1-4)Glc
# Summary of the method: as §1
# [29] = target: Neu5Ac(a2-8)Neu5Ac(a2-8)Neu5Ac(a2-3)[Gal(b1-3)GalNAc(b1-4)]Gal(b1-4)Glc
# Summary of the method: as §1
# [30] = target: Neu5Ac(a2-8)Neu5Ac(a2-8)Neu5Ac(a2-3)[GalNAc(b1-4)]Gal(b1-4)Glc
# Summary of the method: as §1
# [31] = target: Neu5Ac(a2-8)Neu5Ac(a2-8)Neu5Ac(a2-8)Neu5Ac(a2-3)[GalNAc(b1-4)]Gal(b1-4)Glc
# Summary of the method: as §1
# [32] = target: Neu5Ac(a2-8)Neu5Gc(a2-3)Gal(b1-4)GlcNAc
# Summary of the method: as §1
# [33] = target: Neu5Ac(b2-6)Gal(b1-4)GlcNAc
# Summary of the method: as §1
# [34] = target: Neu5Ac(b2-6)GalNAc
# Summary of the method: as §1
# [35] = target: Neu5Ac9Ac(a2-3)Gal(b1-3)GlcNAc
# Summary of the method: as §1
# [36] = target: Neu5Ac9Ac(a2-3)Gal(b1-4)GlcNAc
# Summary of the method: as §1
# [37] = target: Neu5Ac9Ac(a2-6)Gal(b1-4)GlcNAc
# Summary of the method: as §1
# [38] = target: Neu5Gc(a2-3)Gal(b1-3)GlcNAc
# Summary of the method: as §1
# [39] = target: Neu5Gc(a2-3)Gal(b1-3)[Fuc(a1-4)]GlcNAc
# Summary of the method: as §1
# [40] = target: Neu5Gc(a2-3)Gal(b1-4)Glc
# Summary of the method: as §1
# [41] = target: Neu5Gc(a2-3)Gal(b1-4)GlcNAc
# Summary of the method: as §1
# [42] = target: Neu5Gc(a2-3)Gal(b1-4)GlcNAc(b1-3)Gal(b1-4)GlcNAc(b1-2)Man(a1-3)[Neu5Gc(a2-3)Gal(b1-4)GlcNAc(b1-3)Gal(b1-4)GlcNAc(b1-2)Man(a1-6)]Man(b1-4)GlcNAc(b1-4)GlcNAc
# Summary of the method: as §1
# [43] = target: Neu5Gc(a2-3)Gal(b1-4)[Fuc(a1-3)]GlcNAc
# Summary of the method: as §1
# [44] = target: Neu5Gc(a2-6)Gal(b1-4)GlcNAc
# Summary of the method: as §1
# [45] = target: Neu5Gc(a2-6)GalNAc
# Summary of the method: as §1
# [46] = target: Neu5Gc(a2-8)Neu5Ac(a2-3)Gal(b1-4)GlcNAc
# Summary of the method: as §1
# [47] = target: Neu5Gc(a2-8)Neu5Gc(a2-3)Gal(b1-4)GlcNAc
# Summary of the method: as §1
# [48] = target: Neu5Gc(a2-8)Neu5Gc(a2-3)Gal(b1-4)GlcNAc(b1-3)Gal(b1-4)GlcNAc
# Summary of the method: as §1
# [49] = target: Neu5Gc(a2-8)Neu5Gc(a2-6)Gal(b1-4)GlcNAc
# Summary of the method: as §1
# [50] = target: Neu5Gc(b2-6)Gal(b1-4)GlcNAc
# Summary of the method: as §1
binder,measurement,setting,value
rMpL (Macrolepiota procera) (protein) MSTQVSSGRTYKITNVIAGTVIDLSGEDNKSIIGYPYHSGKNQQWTFNWTGKAWTLRSASSGSYLGIEGTPAGGTRLVAVNDPFEWHIWRDEANENAFRIFVPFTNYNLDLSGYGDTTPGTPVQLWWTWEGLHQTWTIDRP,glycan array binding signal (z-score),[1],-0.363
same,glycan array binding signal (z-score),[2],-0.05
same,glycan array binding signal (z-score),[3],-0.333
same,glycan array binding signal (z-score),[4],0.331
same,glycan array binding signal (z-score),[5],-0.334
same,glycan array binding signal (z-score),[6],0.44
same,glycan array binding signal (z-score),[7],-0.15
same,glycan array binding signal (z-score),[8],-0.344
same,glycan array binding signal (z-score),[9],-0.295
same,glycan array binding signal (z-score),[10],-0.241
same,glycan array binding signal (z-score),[11],-0.237
same,glycan array binding signal (z-score),[12],0.103
same,glycan array binding signal (z-score),[13],-0.264
same,glycan array binding signal (z-score),[14],-0.365
same,glycan array binding signal (z-score),[15],-0.37
same,glycan array binding signal (z-score),[16],-0.425
same,glycan array binding signal (z-score),[17],-0.284
same,glycan array binding signal (z-score),[18],-0.364
same,glycan array binding signal (z-score),[19],-0.408
same,glycan array binding signal (z-score),[20],-0.372
same,glycan array binding signal (z-score),[21],-0.353
same,glycan array binding signal (z-score),[22],0.176
same,glycan array binding signal (z-score),[23],-0.388
same,glycan array binding signal (z-score),[24],-0.389
same,glycan array binding signal (z-score),[25],-0.298
same,glycan array binding signal (z-score),[26],-0.35
same,glycan array binding signal (z-score),[27],-0.289
same,glycan array binding signal (z-score),[28],-0.27
same,glycan array binding signal (z-score),[29],0.139
same,glycan array binding signal (z-score),[30],-0.174
same,glycan array binding signal (z-score),[31],-0.267
same,glycan array binding signal (z-score),[32],-0.407
same,glycan array binding signal (z-score),[33],-0.33
same,glycan array binding signal (z-score),[34],-0.338
same,glycan array binding signal (z-score),[35],-0.374
same,glycan array binding signal (z-score),[36],0.277
same,glycan array binding signal (z-score),[37],-0.345
same,glycan array binding signal (z-score),[38],-0.3
same,glycan array binding signal (z-score),[39],-0.335
same,glycan array binding signal (z-score),[40],-0.756
same,glycan array binding signal (z-score),[41],-0.36
same,glycan array binding signal (z-score),[42],-0.182
same,glycan array binding signal (z-score),[43],-0.318
same,glycan array binding signal (z-score),[44],-0.321
same,glycan array binding signal (z-score),[45],-0.358
same,glycan array binding signal (z-score),[46],-0.401
same,glycan array binding signal (z-score),[47],-0.367
same,glycan array binding signal (z-score),[48],-0.369
same,glycan array binding signal (z-score),[49],-0.284
same,glycan array binding signal (z-score),[50],-0.355
